In all, about 33,000 sequences were measured (“E-score (-0.5 to 0.5)”: median about -0.043, highest 2% from about 0.37 on). The list shows a part of the results.
What follows are sequences tested against T1, Upc2 (UniProt Q12151) (assay: PBM E-score (8-mer binding enrichment) (E-score (-0.5 to 0.5)); higher = stronger / more preferred TF binding; most listed sequences are background and not binding sites). Settings: protein concentration: 200 nM; construct: GST-full length.
T1 sequence: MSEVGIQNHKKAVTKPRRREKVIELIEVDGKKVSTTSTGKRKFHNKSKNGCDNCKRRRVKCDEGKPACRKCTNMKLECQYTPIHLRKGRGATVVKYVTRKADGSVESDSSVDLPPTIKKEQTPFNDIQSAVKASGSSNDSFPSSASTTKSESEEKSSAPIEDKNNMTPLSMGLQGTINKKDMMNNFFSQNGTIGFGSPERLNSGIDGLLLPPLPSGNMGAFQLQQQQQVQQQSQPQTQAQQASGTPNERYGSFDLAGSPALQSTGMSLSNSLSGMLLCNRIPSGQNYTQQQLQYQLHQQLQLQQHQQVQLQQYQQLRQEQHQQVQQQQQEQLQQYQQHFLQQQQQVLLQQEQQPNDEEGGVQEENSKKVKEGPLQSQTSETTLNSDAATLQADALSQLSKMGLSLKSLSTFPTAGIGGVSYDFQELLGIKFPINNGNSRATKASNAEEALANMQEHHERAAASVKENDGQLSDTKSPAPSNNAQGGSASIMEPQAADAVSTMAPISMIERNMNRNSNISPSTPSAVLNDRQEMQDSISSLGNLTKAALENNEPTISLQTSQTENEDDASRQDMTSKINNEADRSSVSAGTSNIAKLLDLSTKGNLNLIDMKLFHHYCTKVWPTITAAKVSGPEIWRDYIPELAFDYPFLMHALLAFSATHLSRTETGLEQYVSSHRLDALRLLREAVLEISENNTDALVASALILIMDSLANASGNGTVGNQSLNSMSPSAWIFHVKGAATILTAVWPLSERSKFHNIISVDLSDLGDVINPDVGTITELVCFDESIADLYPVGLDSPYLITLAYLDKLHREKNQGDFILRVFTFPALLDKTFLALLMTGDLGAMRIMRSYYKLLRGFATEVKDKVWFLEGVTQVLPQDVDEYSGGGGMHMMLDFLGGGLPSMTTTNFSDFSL
Method in brief: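 Using PURExpress in vitro transcription/translation, GST-tagged yeast transcription factors were made in full-length or DNA-binding-domain form. These were applied at about 100-200 nM to double-stranded universal all-10-mer Agilent arrays, and bound protein was detected with fluorescent anti-GST. Scans were normalised with masliner before the Universal PBM Analysis Suite assigned E-scores to ungapped eight-base words pooled with their reverse complements.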

Sequence | PBM E-score
CTCCGTAA | 0.285
CGCGACAG | -0.0839
CGCACAGA | 0.0313
CCCATCTC | -0.202
AAGCGGAG | -0.0393
GTAGGAGA | -0.203
AAAGACAG | -0.0254
CCCAGTAG | -0.0846
GGCATAAA | 0.0716
ACAGTGAA | -0.15
GACCTGAC | -0.142
AGAGGGCG | -0.0366
GAGGCCCA | 0.00365
AGCCCCTA | -0.22
AATGTACC | 0.0173
TGAACTAA | 0.0265
CTCGAGAG | -0.189
GGATAACC | 0.0386
AAGTTATC | 0.0259
CCTACTCA | -0.152
CGTTTCCC | 0.212
ACGGTGAG | 0.162

Sequence | PBM E-score
CATCCTGA | 0.0771
CCATGGTA | -0.0316
GAGATCGC | 0.0242
ACACGTTG | -0.193
AGAAACGA | 0.4
ATGCCCCG | -0.172
ACATCCCC | -0.11
CCCCCAAA | -0.218
TACCGCAA | 0.0592
CCTCTGAG | -0.226
ACGTGTCA | -0.111
GCGGTGAC | -0.263
TAAGGCCA | -0.013
CTACGCGC | 0.0218
GCGATTGA | -0.0444
ACAGTTCT | -0.027
CGAGCAAG | 0.129
TCTGCGAA | -0.155
GCGGGGCA | -0.0643
CAGCTTTC | -0.19
AACAGAAG | -0.23
ACTCAGTA | 0.18

Sequence | PBM E-score
GACTCAGC | -0.198
CCACAAGC | -0.152
CAACGCCG | -0.0963
CCGTGTAA | -0.0233
CTACTCAA | -0.0687
AAGGCACC | -0.24
ACTCCGAG | -0.14
GCATCTAC | -0.0234
CTGCTCTC | -0.0481
GACGACCC | -0.207
CGCCGTAC | 0.408
ACAAAACC | 0.174
GACAGATC | -0.166
AACTCCCT | -0.131
CATTTATC | 0.00114
ACCTCGGG | 0.0963
GAGGGTAA | -0.00941
ACTCAATG | -0.103
ACGATTCT | 0.268
GTTTTATA | 0.271
ACTGTAGA | -0.0556
CGGGGTAC | 0.183

Sequence | PBM E-score
CAGGTCGC | 0.0637
TCAAATAA | 0.0535
ATTTCTCA | -0.0957
ATGGGTTC | 0.00547
AGGGTATA | 0.102
GACCCAAC | -0.142
CCAAGGCA | -0.0817
ACCGTGTC | -0.215
ACACTTCC | -0.196
AATGTCGC | 0.0832
GGGTCGAC | -0.159
CTCCGGCA | 0.0044
CAGCGTAC | 0.338
CTCCTTTC | -0.28
AAGCTTTA | 0.166
ATATAGGA | -0.0231
GGTCGCAA | 0.126
ATCACTTG | -0.0789
GCGGGGGA | -0.226
CCATCACC | -0.122
ATGTGATC | 0.167
CGTATAAA | 0.477

Sequence | PBM E-score
GCCTATCA | -0.187
CTTCGTTC | 0.457
CGAGACCC | 0.164
CGTGTTCC | 0.0794
GCGTCTCC | -0.101
GAGACGAA | 0.208
ACCCAACC | -0.00068
TCGGCAGA | -0.167
AAGAACTT | 0.061
AGGTGCCA | -0.164
CTTGATGC | -0.232
AGATGGAG | -0.111
ATAATGAT | -0.0981
GAAAAAAC | 0.161
CTTTCTCA | 0.0661
ATACCACA | 0.0024
ATACGGTA | 0.406
GCGGTAGC | -0.0764
CACCTGGC | -0.284
GAGTAGGC | -0.18
GTATCTTA | 0.232
